# ± gives the standard deviation of the averaged measurements. The list shows a part of the results.
# System: PfAP2-LT AP2 domain (GST-tagged)
# Assay: gcPBM binding intensity (ln(normalized median fluorescence intensity)); higher = stronger DNA binding
# Method in brief: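 For binding intensity, the highest Masliner-normalised natural-log median intensity across replicate spots of either probe orientation was taken. Protein bound to the array was stained with Alexa488 anti-GST antibody and scanned at 488 nm. The protein, GST-tagged P. falciparum DNA-binding domains from E. coli at about 25 μg on average, had been applied for 1 h to an Agilent 4 × 180k array of primer-extended double-stranded 36-bp intergenic genomic probes and negative controls.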
row,Sequence,gcPBM binding intensity (ln)
1,TCATAACAACTTTGTGTGCACATAAAACATGTATAT,9.81 ± 0.26
2,TATAAGACATGATATATACACACCTTGTTTTAATTT [CACACA_site2266],8.87 ± 0.35
3,TTTTTTTTTTCATTCACACAAAAAAAAAAAATTTAT [CACACA_site5921],8.04 ± 0.39
4,AATAAAAATATATCCACACACATATATATATATGTA [CACACA_site576],9.17 ± 0.17
5,ATATGAATATATATATGTACTAATTAGTAGTTTACG [XGTACX_site6273],9.04 ± 0.4
6,GAAGATATGTAAAATTGTACATATTATTTTATTTTA [XGTACX_site5302],8.56 ± 0.47
7,AGAAATTTACAAATACGTACACACATATATATATAT [XGTACX_site3141],9.49 ± 0.63
8,CTGATCCACATTTATACACACCTCGGTTTGTAGAGA [CACACA_site4393],8.93 ± 0.38
9,AAAATATATAATATTTGTACATATTGATGGCAACAG [XGTACX_site6454],8.81 ± 0.4
10,TTTTACACTTTTTTTTGTACACACTAAAAAGATTAA [XGTACX_site8407],8.59 ± 0.52
11,AAAGGTTCATAAAAATGTACATAATTATTTACATGT [XGTACX_site2722],8.72 ± 0.47
12,CAAATCATATATAGCACACAAATTCTTTATTATTAT [CACACA_site2815],8.9 ± 0.5
13,CACAAAAATAAACACACACACATATATATTTATTAT [CACACA_site5923],9.68 ± 0.18
14,TAAATTAAAAGACACACACACAAAAAAAAAAAAAAA [CACACA_site7131],9.4 ± 0.44
15,GGAAACTAAAGGAATAAAACTATGGAAATTAATTAA [CACACA_negctrl_site1647],8.62 ± 0.57
16,TACTATTTAAAATATGAACACACATTATTTGTTTTA [CACACA_site8870],8.7 ± 0.47
17,AGATGATATAATGGCACACAAATATTTTATTATAAA [CACACA_site3553],8.84 ± 0.52
18,TAAATTTATAAATCACGTACATATTTATTTATATTT [XGTACX_site4532],8.62 ± 0.52
19,ATAATTTCATAATACGTGCACATAATATATAAAAAA,8.82 ± 0.42

row,Sequence,gcPBM binding intensity (ln)
1,ATTCAAAATTATAGGTGTACGTATTTTTTTTTTTTT [XGTACX_site7177],8.7 ± 0.55
2,AAGAAAAAAAAAATTACACACTGCGCAGATACACAA [CACACA_site1289],9.03 ± 0.38
3,TGGTAATCCACATACACACACACATACACATATATA [CACACA_site2727],9.83 ± 0.28
4,TAATATGTATATAAAAGTACAGACGATTATAATTAT [XGTACX_site173],8.9 ± 0.38
5,TTTTGTAGATATGACTGTACATATTTTATACATAAC [XGTACX_site971],8.68 ± 0.41
6,AAAAAATAAATAAATACACACAAATATATATATATA [CACACA_site2543],9.45 ± 0.24
7,ATATATATATGTAAGAGTACACAAAAATATGTATGT [XGTACX_site4335],9.17 ± 0.41
8,CACATACCTATATACACACACAAAATAATAAAATAA [CACACA_site7150],9.53 ± 0.33
9,ACTAATATTTTATAAAGTACAAATTAATAAAATTCA [XGTACX_site5817],8.43 ± 0.57
10,AGAATGGATTAGCTAGCACACACAAAAAAAAAAAAA [CACACA_site8995],9.04 ± 0.66
11,TATATATATATATTGACACACATGTATTTCAATATT [CACACA_site2832],9.39 ± 0.057
12,AAGACAACATAAATATGTACATATATTTATTATTTT [XGTACX_site1792],8.82 ± 0.39
13,TACAAAAAGAATGAAAAATATATAATAAAAATAAAA [XGTACX_negctrl_site159],8.54 ± 0.57
14,AAGTATGGAAAGGAATATAAATTAATACTTTCATTG [XGTACX_negctrl_site131],8.55 ± 0.6
15,CTTATATATTGCCCTTCACACACACCCATATATATA [CACACA_site8795],9.55 ± 0.34
16,TTTCAAAGGAAATGGTGTACACAATTTTTCCTTTTT [XGTACX_site2340],8.46 ± 0.38
17,TTTTATTATTCTTCTCTCTTATATATATATATATAT [CACACA_negctrl_site646],9.06 ± 0.44
18,ATAACATAGGCAATCACACATATCATTAAGGTGTCA [CACACA_site5233],9.04 ± 0.4
19,ACTGTGGTATAAAGTTGTACATGTTTTTATATATTT [XGTACX_site5257],8.99 ± 0.4

row,Sequence,gcPBM binding intensity (ln)
1,TACTTTTATATGAATACACACAGGAATATATATATG [CACACA_site3568],8.88 ± 0.37
2,TTACTTTAACCTTCTCGTACTTATTTACTTTATTCT [XGTACX_site7801],8.99 ± 0.47
3,TTAAAAGTTATGGATACACACATATAAATATAGATT [CACACA_site7175],8.85 ± 0.41
4,TTAATAAATATGTTTACACACGAAAATACATTTTTT [CACACA_site8245],8.76 ± 0.5
5,TCGATTAAAACACAAAAATATAAATACATTGATAAA [TGCATGCA_negctrl_site523],8.56 ± 0.52
6,TAATTTTCATAATTTTGTACTTAACGTTTTACCTTG [XGTACX_site8048],8.86 ± 0.59
7,ACATATATATATATATATATATATATATATTCTTAA [CACACA_negctrl_site930],9.34 ± 0.3
8,ATTTTAATTTTTTAAGTATTATATGAATATTTATTA [TGCATGCA_negctrl_site142],8.35 ± 0.5
9,GTCTAAAAATAAAAAGTGCATTTGTTTAATATTTTG,8.5 ± 0.47
10,TGATTGTATTAAAATGCACACATATCAAGAGGAATT [CACACA_site7985],9.03 ± 0.35
11,TTAATTTTTTTTTTTTGTACTCATATGTAATTCATC [XGTACX_site3071],8.66 ± 0.58
12,ATTAAAACAAATATGTGTACATAAAAATATATATAT [XGTACX_site8394],8.97 ± 0.47
13,TATTATTATTATTATTTTAAAAGAAATAAAAATATG [XGTACX_negctrl_site119],8.02 ± 0.46
14,TTTTAATTTTGTTGTTGTACAAATAACATGTGAGGG [XGTACX_site4401],8.72 ± 0.38
15,ATATACATTAAATGAACACACATAAATAAATTACAT [CACACA_site2852],9.11 ± 0.47
16,TATTTTATCATTTTTTTTATGTCTTTATTTCACTTG [CACACA_negctrl_site1398],8.8 ± 0.61
17,CTGTGTTTTGGTTGTACACACGCTACATTATATATT [CACACA_site5487],9.36 ± 0.39
18,AACACATAAAAAAGGTGTACCATAAAATATACATAC [XGTACX_site4478],9.08 ± 0.54
19,ATATATATATATATATCATTTATTTAAAAATTTTTT [TGCATGCA_negctrl_site228],9.265 ± 0.078
